From PubChem BioAssay AID1345082 (National Center for Advancing Translational Sciences (NCATS), 2018)
Screen size: about 94,000 compounds; about 4,000 (4.3%) were called active. Inconclusive means that the source gave no clear call. Such entries were picked first, then a sample of the others. Calls follow the shape of the dose curve; as a rule, active = well fitted inhibition curve with a large enough effect; inconclusive = small, poorly fitted or top-dose-only effect; inactive = no such curve, though single readings can be large or run the other way. Potencies of inconclusive entries are doubtful fits and often do not repeat.

test: Cytotoxic Profiling in NIH 3T3 Cell Line of Diverse Libraries Using Quantitative High-Throughput Screening; settings: NIH 3T3 viability, CellTiter-Glo ATP luminescence, 48-72 h; series mostly up to 96.7 µM; also: nearly all actives have a fitted effect of over 55% in size
How it was run: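 Cytotoxicity is measured as loss of cellular ATP: NIH 3T3 cells (400/well) are exposed to compound for 48 or 72 hr at 37 °C, then CellTiter-Glo luminescence is imaged after 10 min at room temperature.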
Potency is read from the fitted curve at half-maximal effect; tags tell the direction and shape of the fitted curve.

SMILES | Potency
COc1ccc(CC(=O)NC2CCN(c3ccc4nnc(C5CC5)n4n3)C2)cc1 (configuration not stated) | inconclusive: 50.1 µM [inhibitor, partial curve, poor fit]
COc1ccc(-c2noc(CC3CCN(C(=O)c4cc(OC)cc(OC)c4)CC3)n2)cc1 | inconclusive: 22.4 µM [inhibitor, full curve]
Cc1noc(C)c1-c1cnc(Nc2ccc(F)c(Cl)c2)c2c1CCO2 | inconclusive: 35.5 µM [inhibitor, partial curve, poor fit]
COCCc1noc(C2Cc3ccccc3N2C(=O)Nc2ccc(C)c(C)c2)n1 (configuration not stated) | inactive
CNC(=O)[C@@H]1CN(S(=O)(=O)c2cnc[nH]2)C[C@H]1c1n[nH]c(C)n1 | inactive
Cc1nc(C)c(C(=O)N2CC(Oc3cccc(-c4nc(-c5ccccc5)no4)c3)C2)s1 | inconclusive: 35.5 µM [inhibitor, partial curve, poor fit]
O=C(O)c1ccc(NCc2nc3c(n2Cc2ccccc2)C(=O)N(CC2CCOCC2)CCN3)cc1 | inconclusive: 70.8 µM [inhibitor, single point]
COc1ccc(CN2CCCC23Cc2ccccc2CNC3=O)cc1OC (configuration not stated) | inactive
O=C(NCc1ccc(F)cc1)C1CCc2nnc(-c3ccc(Cl)cc3Cl)n21 (configuration not stated) | inactive
Cc1cc(CNC(=O)c2cc(C(C)C)nn2C)c2[nH]c(C)c(C)c2c1 | inconclusive: 7.94 µM [inhibitor, full curve, poor fit]
COC1C(=O)N(C2CCN(C(=O)c3cc(C)nn3C)CC2)C12CCOCC2 (configuration not stated) | inactive
COCc1c(C(=O)N2C[C@@H](CO)[C@H](c3ccncc3)C2)noc1C | inactive
CCc1cccc2c(C(CC(=O)NCCc3ccccc3)c3ccc(OC)c(OC)c3)c[nH]c12 (configuration not stated) | inconclusive: 44.7 µM [inhibitor, partial curve, poor fit]
O=[S+]([O-])(Nc1cccnc1)c1ccc2c(c1)OCCN(Cc1cscn1)C2 | inconclusive: 35.5 µM [inhibitor, partial curve, poor fit]
CC#CCn1cc2c3c(cccc31)[C@H](CC(C)C)N[C@H](C(=O)NCc1ccccc1)C2 | inconclusive: 112 µM [inhibitor, partial curve, poor fit]
O=C1NCc2ccccc2CC12CCCCN2Cc1ccnc2ccccc12 (configuration not stated) | inconclusive: 39.8 µM [inhibitor, partial curve]
COC(=O)c1cc2n(n1)CCCN(C(=O)c1ccc(OC)nc1OC)C2 | inactive
COCCn1c2c(c(=O)n1-c1ccccc1)CCN(C(=O)Cc1ccc3c(c1)OCO3)C2 | inconclusive: 112 µM [inhibitor, single point]
COc1cc(C(=O)NC[C@@H]2CC[C@H]3C[C@@H]2C3(C)C)nc2ccccc12 | inconclusive: 89.1 µM [inhibitor, partial curve, poor fit]
C#CCNC(=O)c1cc(-c2ccc(Cl)cc2Cl)c2cccn2n1 | inconclusive: 50.1 µM [inhibitor, single point]
CN1Cc2ccc(NCc3ccccc3)nc2C(C)(C(=O)NCCOc2ccccc2)C1 (configuration not stated) | inconclusive: 56.2 µM [inhibitor, partial curve, poor fit]
Cc1ccc([S+](=O)([O-])N(C)Cc2ccc(-c3ccccc3)cc2)cc1 | inactive
COCC(=O)N[C@H]1C[C@@H](Cc2cc(-c3ccc(F)cc3)on2)C1(C)C | inconclusive: 89.1 µM [inhibitor, partial curve, poor fit]

SMILES | Potency
O=C(NCc1ccccc1F)C1CC(c2ccccc2)CN(C(=O)COc2ccccc2)C1 (configuration not stated) | inconclusive: 44.7 µM [inhibitor, partial curve, poor fit]
CC(C)n1cc(CN(C)C(=O)c2cc(COc3ccccc3)on2)cn1 | inconclusive: 44.7 µM [inhibitor, partial curve]
Cc1ccc(NC(=O)CN2C(=O)NC3(CCCCC3)C2=O)cc1C | inconclusive: 44.7 µM [inhibitor, partial curve, poor fit]
CC(C)c1noc(-c2cn(C3CCN(C(=O)c4nccc5ccccc45)C3)nn2)n1 (configuration not stated) | inactive
O=C(CCc1ccccc1)N1CCNc2cnc(Nc3ccc(-n4ccnc4)cc3)nc2C1 | inconclusive: 35.5 µM [inhibitor, partial curve, poor fit]
OCc1cccc(-c2cc3c(cn2)CN(CCc2ccccc2)CCN3)c1 | inconclusive: 79.4 µM [inhibitor, partial curve]
CN(C)C(=O)C1CCCN(c2nc3ncccc3o2)C1 (configuration not stated) | inactive
COC1CCCN(C(=O)c2cc(-c3ccc(F)cc3)cc3ncn(C)c23)C1 (configuration not stated) | inactive
CN(Cc1cc(-c2ccccc2)on1)C(=O)c1cn(Cc2ccc(F)cc2)nn1 | inconclusive: 44.7 µM [inhibitor, partial curve, poor fit]
COc1ccc(CN2CCC3(CC2)OC(=O)N(Cc2ccccc2C#N)C3(C)c2ccccc2)cc1O (configuration not stated) | inconclusive: 44.7 µM [inhibitor, partial curve, poor fit]
COCCc1noc(C2CNC2)n1 | active: 17.8 µM
O=C(c1ccccc1)N1CCn2c(nn(-c3ccc(F)cc3)c2=O)C1 | inactive
COc1ccc2c3c1CN(C(=O)NCc1ccccc1)CC3=CC(C)(C)CO2 | inconclusive: 28.2 µM [inhibitor, partial curve]
Cn1c2c(c3ccccc31)CN(C(=O)Nc1cccc(Br)c1)CC2 | active: 31.6 µM
CN(CC(=O)N[C@H]1CCOC[C@H]1C1CCOCC1)Cc1ccccc1F | inactive
COC1CCN(C(=O)c2ccnc(-c3nnc4ccc(N5CCOCC5)nn34)c2)CC1 | inconclusive: 89.1 µM [inhibitor, partial curve, poor fit]
CN(Cc1cccc2cnccc12)C(=O)c1cc(COc2ccc(F)cc2F)on1 | inconclusive: 39.8 µM [inhibitor, partial curve, poor fit]
Cc1cccc(CC(=O)N2CCC(Nc3cccn4ncnc34)CC2)c1 | inconclusive: 44.7 µM [inhibitor, partial curve, poor fit]
CCn1cnnc1CC1CCN(C(=O)Nc2ccccc2)C1 (configuration not stated) | inactive
c1cncc(-c2ccnc(NCCc3csc(-c4ccncc4)n3)n2)c1 | inconclusive: 50.1 µM [inhibitor, partial curve, poor fit]
O=C(NC1CCN(c2cc(-c3ccc(F)cc3)[nH]n2)C1)c1ccc2cc[nH]c2c1 (configuration not stated) | inconclusive: 50.1 µM [inhibitor, partial curve, poor fit]
Cn1nccc1C(=O)NCCC1CCN(C(=O)Nc2cc(F)ccc2F)CC1 | inactive
O=C(c1ccc2c(c1)OCO2)N1CCCC2(CC(c3ccccc3)=NO2)C1 (configuration not stated) | inactive

SMILES | Potency
COc1cccc(N2CC3(COCC2=O)CN(c2ccc(C(F)(F)F)cn2)C3)n1 | inconclusive: 79.4 µM [inhibitor, partial curve]
COC(=O)c1ccc2c(c1)nc1n2[C@@H](CNC(=O)c2ccc(F)cc2)COC1 | inactive
O=C(NCc1cccnc1)c1nc(-c2ccc(F)cc2)c2cnccn12 | inconclusive: 39.8 µM [inhibitor, partial curve, poor fit]
CCn1ccc(C(=O)N2CCC3(CC2)CC(OCC2CC2)CCO3)n1 (configuration not stated) | inactive
N#Cc1ccccc1CN1CCNc2nc(CNCc3ccc4c(c3)OCO4)n(Cc3ccccc3)c2C1=O | inconclusive: 44.7 µM [inhibitor, partial curve, poor fit]
Cc1cc(-c2cnc3[nH]cc(CC(=O)NCc4cccnc4)c3c2)ccn1 | inconclusive: 89.1 µM [inhibitor, partial curve, poor fit]
O=C(Cn1nc2c(cc1=O)CCCC2)NCc1nc2ccccc2[nH]1 | inactive
Cc1ccc(F)cc1-c1cn(C)c(=O)n2cc(COc3ccccc3)nc12 | inconclusive: 89.1 µM [inhibitor, partial curve, poor fit]
CNC(=O)c1cc(-c2ccc(Cl)nc2)nc2c1cnn2C | inconclusive: 44.7 µM [inhibitor, partial curve]
COc1ccccc1OCCNC(=O)C(C)C1CCOCC1 (configuration not stated) | inactive
CC(=O)Nc1ccc(CN2CCN3C(=O)N(C)C[C@H]3C2)cc1 | inactive
COc1cccc(COC2CN(Cc3ccccn3)C(=O)CN(C(=O)C3=NN(C)C(=O)CC3)C2)c1 (configuration not stated) | inactive
COc1ccc(C(=O)N2CCC(N3C[C@H](O)C[C@H]3C(=O)NC3CCCCC3)CC2)c(OC)c1 | inconclusive: 50.1 µM [inhibitor, partial curve, poor fit]
CC(C)NC(=O)N1CCC(c2nc(CCOCC3CCOCC3)no2)C1 (configuration not stated) | inactive
Cc1nc(C)c(C(=O)N2CCCCCCNC(=O)[C@@H]3CCC[C@@H]32)s1 | inactive
CC(=O)N1CC2(CCN(Cc3ccc(Cl)cc3)C2)Cc2ccccc21 (configuration not stated) | inactive
O=C(NC1CCCCCC1)c1ccc2nc(-c3ccccn3)oc2c1 | inconclusive: 100 µM [inhibitor, partial curve, poor fit]
Cn1cnc2ccc(-c3cccc(C(F)(F)F)c3)nc2c1=O | inconclusive: 100 µM [inhibitor, single point]
Cc1nc(CN2C[C@H](C(=O)N3CCN(c4ccccn4)CC3)C[C@@H]2c2ccc(F)cc2)cs1 | inconclusive: 70.8 µM [inhibitor, single point]
Cc1nc(C)c(C(=O)N2CCC(CCOc3ccccc3)C2)s1 (configuration not stated) | inconclusive: 35.5 µM [inhibitor, partial curve, poor fit]
CCC(=O)N1CCCN(c2ccnc3ccnn23)CC1 | inconclusive: 100 µM [inhibitor, partial curve, poor fit]
